# PubChem BioAssay AID686978 (National Center for Advancing Translational Sciences (NCATS), 2013)
# Values joined by “and” are separate entries in the source; they are usually repeats but may differ in a detail not shown here. Equal entries are not always repeated. Screen size: about 420,000 compounds; about 64,000 (15%) were called active. Inconclusive means that the source gave no clear call. Such entries were picked first, then a sample of the others. The call rests on the fitted dose curve; in most records, active means well fitted inhibition curve with a large enough effect; inconclusive means small, poorly fitted or top-dose-only effect; inactive means flat fitted curve, though single readings scatter. Potencies of inconclusive entries are doubtful fits and often do not repeat.
# Assay: qHTS for Inhibitors of human tyrosyl-DNA phosphodiesterase 1 (TDP1): qHTS in cells in absence of CPT; further: nearly all actives have a fitted effect of over 55% in size
# Details: DT40 Tdp1-/- hTDP1 cells, no CPT, ATP luminescence, 48 h; activity change, negative = growth inhibition: at 46.2 µM (top of the series) unless noted
# How it was run: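 Cells were dispensed at 400 per well, compounds added by pin tool, plates incubated ≥48 hr at 37 °C, then CellTiter-Glo added for 30 min at room temperature before luminescence reading. Line: DT40 Tdp1-/- complemented with hTDP1; camptothecin omitted.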
# On the % scale 0 is the no-effect control and ±100 the full control effect; potency means the concentration at half of the fitted maximal effect; tags describe the fitted curve by direction and shape.
SMILES,Potency,"activity change, negative = growth inhibition"
COc1ccc(NC(=O)c2sc(N3CCOCC3)nc2-c2ccccc2)c(OC)c1,"inconclusive: 29.1 µM [inhibitor, single point]",–
O=C(CSc1ccc2ccccc2n1)N/N=C/c1ccc(O)cc1,"inconclusive: 29.1 µM [inhibitor, single point]",–
Cc1ccc(C(=O)NCc2ccco2)cc1S(=O)(=O)N1CCCCC1,–,inactive: -18.7%
Cc1cccc(C)c1OCC(=O)NC(Cc1c[nH]c2ccccc12)C(=O)O (centres undefined),inactive,–
COc1ccc(F)cc1-c1cc(NC(C)=O)c2ncc(-c3cccc(C(F)(F)F)c3)n2c1,"inconclusive: 9.2 µM [inhibitor, partial curve, poor fit]",–
CC(O)CN(CC(C)O)c1ccc2c(c1)Cc1cc([N+](=O)[O-])ccc1-2 (centres undefined),active: 14.6 µM,–
O=C(Cc1cn(Cc2cccc(Cl)c2)c2ccccc12)N1CCCCCC1,"inconclusive: 29.1 µM [inhibitor, single point]",–
CCOC(=O)c1sc(NC(=O)c2ccc(S(=O)(=O)N(CC)CC)cc2)nc1C,–,inactive: -25.4%
CCOc1ccc(N(C)S(=O)(=O)c2ccc(C)c(C(=O)NCCc3ccc(OC)cc3)c2)cc1,"inconclusive: 23.1 µM [inhibitor, single point]",–
C[C@H]1CN([C@@H](C)CO)C(=O)c2cc(Br)cnc2O[C@H]1CN(C)S(=O)(=O)c1cccs1,–,inconclusive: -31.7% [inhibitor]
CCC(=O)Nc1c(C)c(CC)nc2ccccc12,–,inactive: -4.24%
Cc1ccc(C(=O)OCc2nc3ccsc3c(=O)[nH]2)o1,–,inactive: -0.721%
O=C(CCCOc1ccccc1)Nc1cc(S(=O)(=O)N2CCOCC2)ccc1N1CCOCC1,"inconclusive: 20.6 µM [inhibitor, partial curve]",–
COc1ncnc2c1sc1nc(-c3ccccc3)c3c(c12)CCCC3,–,inactive: -15.3%
COc1ccc(CNC(=O)c2ccc(N(C)S(=O)(=O)c3ccc(C)cc3)cc2)cc1,"inconclusive: 23.1 µM [inhibitor, single point]",–
CCn1cc(C(=O)O)c(=O)c2cc(F)c(N3CCNC(C)C3)c(F)c21 (centres undefined),"inconclusive: 33.5 µM [inhibitor, single point] and inconclusive: 26.6 µM [inhibitor, single point] and inconclusive: 16.4 µM [inhibitor, partial curve, poor fit]",–
Cn1cc(C(=O)NCc2ccccc2Cl)c(=O)c2cc(S(=O)(=O)N3CCCCCC3)ccc21,"inconclusive: 29.1 µM [inhibitor, single point]",–
CCOC(=O)c1c(S(=O)(=O)N2CCC(C(=O)N3CCN(c4ccccc4F)CC3)CC2)c(C)n(C)c1C,–,inactive: -25.2%
Cc1ccc(NCc2ccccc2F)cc1,"inconclusive: 29.1 µM [inhibitor, single point]",–
COc1cc(O)c(CCC(=O)c2cc(OC)c(OC)c(OC)c2)c(OC)c1,active: 14.6 µM,–
COc1cc(C(C)=O)ccc1OCC(=O)NCCCn1nc(C)cc1C,"inconclusive: 23.1 µM [inhibitor, single point]",–
Cc1ccc(C(=O)NCC(=O)NCC(=O)OCC(=O)c2ccc([N+](=O)[O-])cc2)cc1,active: 23.1 µM,–
O=C(Nc1cc(C(F)(F)F)ccc1-n1cncn1)c1ccc(-c2ccccc2)cc1,–,inconclusive: -33% [inhibitor]

SMILES,Potency,"activity change, negative = growth inhibition"
COC(=O)Cn1c(=O)c2c(nc3n2CCCN3CCc2ccc(OC)c(OC)c2)n(C)c1=O,–,inactive: -8.06%
O=C(NC(=S)NCCC1=CCCCC1)c1ccccc1Br,active: 16.4 µM,–
O=C(N/N=C/c1ccccc1[N+](=O)[O-])C(=O)N1CCCC1,–,inactive: -13.4%
CCc1ccc(OCc2nnc(SCCN3CCOCC3)n2C)cc1,–,inconclusive: -5.96% [inhibitor]
O=C(Cc1ccccc1)NCC(=O)OCC(=O)c1ccc(Cl)c([N+](=O)[O-])c1,"inconclusive: 29.1 µM [inhibitor, single point]",–
COc1cc(Cl)c(C)cc1NC(=O)CCc1nc2cccnc2n1Cc1cccs1,"inconclusive: 20.6 µM [inhibitor, single point]",–
CCOc1cc(/C=N\O)cc(Cl)c1OCC,–,inactive: -15.4%
NC(=O)c1cc[n+](CC2=C(C(=O)O)N3C(=O)[C@@H](NC(=O)C(c4ccccc4)S(=O)(=O)[O-])[C@H]3SC2)cc1 (some centres undefined),–,inconclusive: -34.2% [inhibitor] [at 21.1 µM]
CCOC(=O)c1ccc(NC(=O)CCCn2c(=O)c3cccn3c3cccnc32)cc1,active: 18.4 µM,–
Cc1ccc(NS(=O)(=O)c2ccc(Cl)c(NC(=S)NC(=O)C3CCCCC3)c2)cc1Cl,"inconclusive: 18.4 µM [inhibitor, single point]",–
CCCN(Cc1nnc(-c2ccccc2Cl)o1)C(=O)COc1ccc(Cl)cc1,"inconclusive: 23.1 µM [inhibitor, single point]",–
C=CCN(C(=O)c1csnn1)C(C(=O)NCc1ccc(F)cc1)c1ccccc1 (centres undefined),"inconclusive: 29.1 µM [inhibitor, single point]",–
COc1ccc(OCCC(=O)NCC23CC4CC(CC(C4)C2)C3)cc1,"inconclusive: 16.4 µM [inhibitor, single point]",–
CC(=O)NC(c1ccc(F)c(F)c1)c1nc(-c2cccc(C(F)(F)F)c2)cs1 (centres undefined),"inconclusive: 20.6 µM [inhibitor, single point]",–
FC(F)Oc1ccc(NC(=S)N2CCc3ccccc32)cc1,–,inconclusive: -31.8% [inhibitor]
O=C(c1cccc(F)c1)N1CCC[C@@]2(CCN(Cc3ccncc3)C2)C1,–,inactive: -21.4%
CC(C)N(Cc1ccccc1)C(=O)Cn1ncc2c3ccccc3n(Cc3ccccc3)c2c1=O,active: 18.4 µM,–
COc1ccc(CCNC(=O)c2cn(C)c3ccc(S(=O)(=O)N4CCOCC4)cc3c2=O)cc1OC,inactive,–
COc1ccc(NC(=O)C2CCN(S(=O)(=O)c3c(C)noc3/C=C/c3cccs3)CC2)cc1,"inconclusive: 4.11 µM [inhibitor, full curve, poor fit]",–
CC1(C)Cc2c(C#N)c(N3CCN(C(=O)c4ccccc4)CC3)nc(-c3ccco3)c2CS1,"inconclusive: 29.1 µM [inhibitor, single point]",–
C=C(C)COc1ccc(-c2[nH]ncc2Oc2ccc(OC)cc2)c(O)c1,"inconclusive: 29.1 µM [inhibitor, single point]",–
Cc1cccc(Cn2c(SCc3ccc(C(=O)NC4CCCC4)cc3)nc3cccnc32)c1,"inconclusive: 29.1 µM [inhibitor, single point]",–
C=CCN(CC=C)C(=O)c1ccc2nc(Cc3ccc(OC)c(OC)c3)oc2c1,active: 4.61 µM,–

SMILES,Potency,"activity change, negative = growth inhibition"
CS(=O)(=O)N1CCN(c2ccccc2NC(=O)Cc2ccccc2)CC1,"inconclusive: 16.4 µM [inhibitor, single point]",–
COc1cc2c(NC3CCN(C)CC3)nc(N3CCCCC3)nc2cc1OCCOCCN(C)C,"inconclusive: 35.5 µM [inhibitor, single point]",–
CN(C1CCS(=O)(=O)C1)S(=O)(=O)c1ccc(C2CCCCC2)cc1 (centres undefined),"inconclusive: 7.31 µM [inhibitor, partial curve]",–
O=C(CSc1ccccc1)NCc1ccc2c(c1)CCN2C(=O)c1ccccc1,–,inactive: -18.8%
CCOc1ccc(C(C(=O)NC(C)(C)C)N(CCOC)C(=O)CCC(=O)Nc2ccccn2)cc1 (centres undefined),–,inactive: 2.36%
COc1cccc(-c2noc(CCCC(=O)NCc3ccco3)n2)c1,"inconclusive: 11.6 µM [inhibitor, partial curve, poor fit]",–
COc1ccc2c(c1)CCc1c(C(=O)NCc3ccc(Cl)cc3)noc1-2,–,inactive: -12.4%
O=C(Nc1nc(-c2ccc3ccccc3c2)cs1)c1ccc(N2C(=O)CCC2=O)cc1,"inconclusive: 25.9 µM [inhibitor, single point]",–
CCOC(=O)CN1C(=O)C(CC)Oc2ccc(Cl)cc21 (centres undefined),–,inactive: -10.2%
CC(C)(C)NC(=O)COc1ccc(S(=O)(=O)N2CCCC2)cc1,–,inactive: 1.18%
COc1ccc(OC)c(CNC(=O)c2ccc(NC(=O)c3nsc4ccccc34)cc2)c1,active: 18.4 µM,–
O=S(=O)(NCc1cccnc1)c1cccc2cccnc12,–,inactive: -6.41%
COc1cccc(OC)c1C(=O)N1CCN(Cc2ccc3c(c2)OCO3)CC1,"inconclusive: 0.731 µM [inhibitor, full curve, poor fit]",–
Cc1ccc2nc(-c3cccc(N)c3)[nH]c2c1,"inconclusive: 23.1 µM [inhibitor, single point]",–
COc1ccc(/C=C/C(=O)c2ccc3c4c(cccc24)CC3)cc1OC,active: 16.4 µM,–
COc1ccc(OC)c(CN2CCN(CCCc3ccccc3)C(CCO)C2)c1 (centres undefined),"inconclusive: 18.4 µM [inhibitor, single point]",–
N=c1c2c(-c3ccccc3)c(-c3ccccc3)n(Cc3ccccc3)c2ncn1CCCn1ccnc1,"inconclusive: 29.1 µM [inhibitor, single point]",–
CC(C)c1ccc(/C=C2\NC(=O)NC2=O)cc1,"inconclusive: 23.1 µM [inhibitor, partial curve, poor fit]",–
O=C(O)CC1(CC(=O)Nc2ccc3ccccc3n2)CCCCC1,–,inactive: 1.37%
COc1cccc(N2CCN(C(=O)c3cc(-c4ccc(F)cc4)[nH]c3C)CC2)c1,active: 20.6 µM,–
Cc1ccc(CNC(=O)C2CCN(S(=O)(=O)c3cccs3)CC2)o1,–,inactive: -11.5%
O=C(O)/C(=C\c1ccccc1OC(F)F)Sc1nnc(-c2ccc(F)cc2)o1,"inconclusive: 16.4 µM [inhibitor, partial curve, poor fit]",–
CCn1cc(S(=O)(=O)c2cccc(Cl)c2)c(=O)c2cc(F)c(N3CCN(C)CC3)cc21,"inconclusive: 29.1 µM [inhibitor, single point]",–
